# The source gives no read counts; variants with many changes may rest on few reads.
# B1: LINE1-full (parent)
# chain: UACGUAGGUGGUUUUCCCCUGAUAGUGCUAAGGGGGCCUGGAAGUUUGGACUGGGCAGAGCUCAACACAGCGUGGCAAAGUGGCUGUGGCUAGACUGCCUCUCUGGAUUCCUCGUCACUCAGCAGGGCAUCUCUGAGAGAAAUGCC
# Variants of: B1
# Experiment: self-cleavage, relative activity (ratio to wild type); higher = more cleavage; in vitro, sequencing; the parent is a self-cleaving ribozyme
row,Variant,self-cleavage
1,C28U U47C A78G A138G,0.5
2,C90U A129G A141U,0
3,U9A G72C U81C A121C,2.3
4,U45C A65G G127U,0.06
5,G8A U14C A59U U91C,1.16
6,U13A A64G A78G U87G A129G,0.15
7,A69U U108C A129U,0.09
8,U20A A77G U119C U130C,1.53
9,U109G U112C A140U,1.71
10,U12C U96C U112C A117U A141G,0.35
11,U52C A59G U132C,0.4
12,A22G A94G A140G,0.18
13,U73A U85C C101A U108C,0.29
14,U26C U47A A69U,0.03
15,U5C A6G A69G U96C C128U,0
16,A69U U100C U104C U108C,0
17,A77U U96C A121U A124G U143A,0.04
18,U62C A79G G125U,0
19,U13C U20C A42G G114A U119C U132A,2.38
20,G32C A69U C71U,0.04
21,U9G A42U C103A G125U,0.73
22,U26A U52A U96A U132C,0.06
23,U13A A42G A59G,0
24,U23C U119A A138G,1.62

row,Variant,self-cleavage
1,U96C U109C C146A,0.1
2,U26C U62G U81A,0.22
3,U46A U52C A138G,1.62
4,U15A U46C A69G A124U A140G,0.77
5,U1C A69G U87G U104C A129G,0
6,U45C A64G U102C,0.46
7,U5A U96C C99U U102C,0
8,G35A A43G U143C G144A,0.85
9,U46C U52A C71U,1.24
10,U14C U45C G75U U85G C99A,0
11,U39C A67U A77U U87C C120U,0.07
12,U13A A117G U130C,1.77
13,U52G A59G U112C,0.15
14,U9A U102C U115C,1.53
15,A2G G41C C63U,0.32
16,G35A A42G A64G,0.15
17,A30G U96C U108A,0.4
18,U134C A136U U143A,1.99
19,G7C U9A C19U U62C U119C U130C,0
20,U26G U39C G125A,1
21,U20C U39A U85C,0.28
22,A79G U91C U108C,0.38
23,A57G A117G U134A A140G,0.18
24,U15C A24G A42G A138G,1.98

row,Variant,self-cleavage
1,A67G A92G U132C,0
2,U81C C103A A117U,2.14
3,U12G U29G A30G,0.66
4,U9C A67G C133U,0.37
5,A30U U46C A77G A142G,0.24
6,A42G A43C U85C,0
7,U81C G89C A136G,0.14
8,U45C A64U A136G,0.45
9,A50U A94G U112C,0
10,A30U A140C A142G,0.38
11,U1C U5C G97A,0.21
12,U96A U100A C111U,0.07
13,A59G U87A A129U A142G,0.05
14,U29A A31U U87C A124G,0
15,U13C U62C A77U A141G,0.16
16,U13C U85C U112C,0
17,A24G A69U C113U,0.08
18,U1C U26A A59U A77G,0.95
19,U1C U9C G41U U62C A65G A94G,0.26
20,U15A U102C U134C,0
21,U15A U47A U119A U134C,1.05
22,U12C U20C U85C,0.63
23,A59G A94G G139A,0.17
24,U9C A77U A141G,1.44

row,Variant,self-cleavage
1,A24G U46C A59G U73A G122A,0.29
2,U115A A129G C146U,1.94
3,U14C U26C G58U A138U,0.07
4,U5G U13C A94G,0.21
5,U15A U45G A59U A129G,0.31
6,U12A A24G U96C,0.09
7,A30G G44A U81A A94U,0.21
8,A65G A79U U100C,0.06
9,A65U A77U A124G,0.17
10,A121U A136U A140G,0.92
11,A121U A124U U134A,1.41
12,U45C C71U C76U A78G,0.52
13,A2G G36A G80C,0.89
14,U15C U26C C66U,0.09
15,U14C A42U A64G,0
16,A77C A129G G137U,2.42
17,G11A A50G C90A U104C,0
18,G48A A50U A69G U143C,0.33
19,U29C U47A A129C,1.49
20,U20C G41U A94G,0.31
21,U109A U132C A138G G144A,1.57
22,U46C U108C U109A U115C,0
23,U46C C56U A140G A142G,0.48
24,A6G U47C A57U A69U U81A,0.34

row,Variant,self-cleavage
1,G48A A94C G126A,0.05
2,A6G A57C G88A U132C,0.12
3,A43U U91A U119G,0.36
4,G8A U52C A140G,0.62
5,A117U A129C A142G,1.8
6,A22G A57G U62A,0.2
7,A78G U109G C113U G114A U119C,0.23
8,A57U A94G U115C,0
9,U9A U26G A43G,0.36
10,A22G U102C G105A A142G,1.25
11,G32A U45A U102G U143C,0.64
12,U14C U20A A77G,1.56
13,U39C A121G G122A,1.12
14,U13C A31U U39A,0.76
15,G35A U39A U85C C133U,0.13
16,C71G U100C G114C U134C G139A,1.45
17,U13A C28A A69G A142G,0.38
18,G35A A77G G106U U108C C131U,1.3
19,U13C U85C U115A U119C,0.56
20,U13C U46C A67G U73A A140G,1.28
21,C18A A59G U87C,0.17
22,U20C A30U A107U,0
23,G48A A107U A117G C128U,1.74
24,U14C U29C U62G,0

row,Variant,self-cleavage
1,U26C G86A A92U,0.03
2,U14C U87A A124G A129G U130C,0
3,A30U A43G A117C U130C A136U,2.4
4,U13C C19A U39A A140G C146U,1.31
5,A79G U85A U130C,0.17
6,A67U A138U A142U,0.22
7,C84U C101A A117G A124G,0.14
8,U104A U119A A124C U134C,1.31
9,U1A C16U A77U,0.42
10,U12C U15A C37U U115C,1.38
11,U26C A57U U100C A121U,0
12,U20G U112C A141G,1.16
13,U14C A30G A43U,1
14,A2G U62C A136G A140G,1.15
15,C76A U104A U108C U115C U132C U134C A140G,2.42
16,G4A U46C U91C U119C A142G,0
17,C19U A30G U47G G114A,1.4
18,U13C U91A A92U A107U,1.17
19,A50U A59G A79G A140U,0.04
20,U13C A79U A94G,0.25
21,G4C U14C A69G,0.51
22,A59U C68U U109C,0.1
23,U26C A31G G72A,1.8
24,G33A A50G U73C A107U,2.3

row,Variant,self-cleavage
1,U29A A59G U73C,0
2,U14C A77G U143C,2.15
3,U26A A50G A57U,0.1
4,U9A A42G U96C G105U U132C A141G,0.17
5,U47A A65G G86U A136G,0.03
6,U81A U102A U134C,2.51
7,U13C C71U A92U U134C,0.43
8,U12A G80C G114U,1.34
9,U20A U29C U62C A77G,0
10,U20C G35A U52A U62A,0.06
11,A2G U9C G34A U96A U102C C111U A129U,0.43
12,U29A U108C A136G U143C,2.24
13,C16U A77G A129U,1.58
14,U9C U13C G33A,1.04
15,G4A A30U A92G A142U,0.15
16,U15C C18U U96A U119C,0.15
17,U14A C17U U26C U47A U108C,0.55
18,G7U G33C C76U C120U,1.29
19,G114A U115C U132C,1.8
20,U62C G89U U115C,0.03
21,U15C U134A U143C,1.31
22,U47C A67G G125A A140G,0.8
23,C38U U73A U87C A92G U102A,0.08
